Measurements as given in PubChem BioAssay AID686978 (National Center for Advancing Translational Sciences (NCATS), 2013).
Where “and” joins values, the source holds several entries; their conditions need not be identical. Equal values may be shown once. The campaign covered roughly 420,000 compounds. About 64,000 (15%) were called active. Inconclusive means that the source gave no clear call. Such entries were picked first, then a sample of the others. Calls come from the whole dose curve; as a rule, active = well fitted inhibition curve with a large enough effect; inconclusive = small, poorly fitted or top-dose-only effect; inactive = flat fitted curve, though single readings scatter. Where the call is inconclusive, the potency comes from a doubtful curve fit.

Test: qHTS for Inhibitors of human tyrosyl-DNA phosphodiesterase 1 (TDP1): qHTS in cells in absence of CPT; note: nearly all actives have a fitted effect of over 55% in size
Conditions: DT40 Tdp1-/- hTDP1 cells, no CPT, ATP luminescence, 48 h; activity change, negative = growth inhibition: at 46.2 µM (top of the series) unless noted
In short: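 Compound effects on proliferation are scored in DT40 Tdp1-/-;hTDP1 cells in the absence of CPT. ATP levels (CellTiter-Glo luminescence) are recorded after a ≥48 hr, 37 °C incubation.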
% is set by controls: 0 for no effect and ±100 for the full control effect; potency is the fitted concentration of half-maximal effect; tags give direction and shape of the fitted curve.

| Compound | Potency | activity change, negative = growth inhibition |
| --- | --- | --- |
| COc1ccc(C(=O)N2CCCC(c3cc(C(=O)Nc4ccccc4)no3)C2)cc1 (stereo unspecified) | inconclusive: 29.1 µM [inhibitor, single point] | – |
| CC(=O)N(c1nnc(-c2cccc(C)c2)s1)C1CCCC1 | – | inactive: -5.53% |
| Cc1cc(C)nc(CCNC(=O)c2cc(COc3c(C)cccc3C)on2)n1 | – | inactive: -15.2% |
| Cc1ccc(C(=O)N(CCC2=CCCCC2)c2c(N)n(Cc3ccccc3)c(=O)[nH]c2=O)o1 | inconclusive: 8.2 µM [inhibitor, partial curve] | – |
| Cc1cc(C)cc(OCC(=O)O/N=C(\N)Cc2ccc([N+](=O)[O-])cc2)c1 | – | inactive: 0.454% |
| Cc1nn2c(=O)cc(COC(=O)c3cccs3)nc2s1 | – | inactive: -0.575% |
| COc1ccc(C(CNC(=O)c2ccc(-c3ccccc3)cc2)N(C)C)cc1OC (stereo unspecified) | inconclusive: 29.1 µM [inhibitor, single point] | – |
| Cc1c(N=C2SC(CC(=O)Nc3ccccc3)C(=O)N2CCN2CCOCC2)c(=O)n(-c2ccccc2)n1C (stereo unspecified) | – | inactive: -16.2% |
| Nc1ccc(/C=C/c2ccnc3ccccc23)c(N)c1 | inconclusive: 17.8 µM [inhibitor, single point] | – |
| Cc1ccc2nc(-c3ccncc3)cc(C(=O)NCc3ccccc3F)c2c1 | inconclusive: 25.9 µM [inhibitor, single point] | – |
| CC(=O)c1nn(-c2cccc(Br)c2)cc1C(=O)c1ccco1 | – | inactive: -12.9% |
| CCc1ccccc1NC(=O)Cn1nc(C(F)(F)F)c2c1CCC2 | inconclusive: 4.11 µM [inhibitor, single point] | – |
| CCN(CC)S(=O)(=O)c1ccc(C)c(NC(=O)Cc2ccc(S(=O)(=O)N3CCOCC3)s2)c1 | active: 20.6 µM | – |
| Cc1ccccc1C(=O)NC(=S)NCCC1=CCCCC1 | inconclusive: 29.1 µM [inhibitor, single point] | – |
| Cc1cc(C)c2c(CC(=O)Nc3ccccc3C(F)(F)F)coc2c1 | – | inactive: 13.7% |
| O=S(=O)(NC12CC3CC(CC(C3)C1)C2)c1ccc(F)cc1 | inconclusive: 16.4 µM [inhibitor, partial curve] | – |
| COc1ccc(CN(C)CC(=O)NC2CCCc3ccccc32)cc1OC (stereo unspecified) | inconclusive: 29.1 µM [inhibitor, single point] | – |
| CC(C)Oc1ccc(C2CC(=O)N(c3cccc(Br)c3)C2=O)cc1 (stereo unspecified) | – | inactive: -20.2% |
| Cc1cc(C)n(-c2c(F)c(F)c(CO)c(F)c2F)n1 | – | inactive: -6.81% |
| Cc1ccc(C(=O)Nc2ccc3cn[nH]c3c2)cc1S(=O)(=O)N1CCOCC1 | inconclusive: 29.1 µM [inhibitor, single point] | – |
| O=S(=O)(c1ccc(F)cc1)N1CCCN(Cc2c(F)cccc2F)CC1 | – | inactive: -6.04% |
| CN(C)c1ccc(C(CNS(=O)(=O)c2ccc(Cl)cc2)N2CCOCC2)cc1 (stereo unspecified) | inconclusive: 20.6 µM [inhibitor, single point] | – |
| N#CCC(=O)N/N=C\c1cccc(OC/C=C/c2ccccc2)c1 | – | inactive: -3.18% |
| CC1(C(=O)NS(=O)(=O)C2CC2)CCCN(C(=O)COc2ccccc2)C1 (stereo unspecified) | inconclusive: 29.1 µM [inhibitor, single point] | – |

| Compound | Potency | activity change, negative = growth inhibition |
| --- | --- | --- |
| CC(C)CCn1c(Sc2nc3ccccc3s2)nc2c1c(=O)[nH]c(=O)n2C | active: 16.4 µM | – |
| Cc1ccc(Cl)cc1NC(=O)C1CCCN(c2cnccn2)C1 (stereo unspecified) | inactive and inconclusive: 10.3 µM [inhibitor, partial curve] | – |
| Cc1cccc(NC(=O)C2CCN(c3nnc(C)c4c(C)n(-c5ccccc5)nc34)CC2)c1C | – | inactive: 14% |
| COc1cc(NC(=O)c2cc3nc(-c4ccccc4)cc(-c4ccccc4)n3n2)cc(OC)c1OC | inconclusive: 25.9 µM [inhibitor, partial curve, poor fit] | – |
| Cc1cc(=O)oc2cc(Oc3ncccc3[N+](=O)[O-])ccc12 | – | inactive: -8.99% |
| CCCc1nnc2n1N=C(c1ccc(OC)c(OC)c1)CS2 | – | inactive: -24.2% |
| CC(C)(C)OC(=O)CNC(=O)c1[nH]cnc1C(=O)N[C@@H](Cc1ccccc1)C(=O)OC(C)(C)C | inconclusive: 18.4 µM [inhibitor, single point] | – |
| CCCCN(C(=O)c1ccc(-n2nc(C)cc2C)cc1)c1c(N)n(CCC)c(=O)[nH]c1=O | – | inactive: -2.04% |
| CC(C)(C)c1ccc(C(=O)CS(=O)(=O)c2ccccc2)cc1 | active: 16.4 µM | – |
| CCc1nn(CC(=O)Nc2cccc(C(C)=O)c2)c(=O)c2cc3sccc3n12 | inconclusive: 20.6 µM [inhibitor, single point] | – |
| Cc1ccc(O)c(C=Nc2cc(C)ccc2O)c1 | active: 5.17 µM | – |
| COc1ccc(C(=O)NCCc2c[nH]c3ccccc23)cc1S(=O)(=O)N1CCCCC1C (stereo unspecified) | inconclusive: 23.1 µM [inhibitor, single point] | – |
| O=c1cc(CSc2nc3ccccc3[nH]2)c2ccccc2[nH]1 | – | inactive: -7.46% |
| O=C(CCn1c(=O)c2ccccc2n(Cc2cccc(Cl)c2)c1=O)NCCc1ccccc1 | inconclusive: 29.1 µM [inhibitor, single point] | – |
| Cc1ccc(C)c(OCCC(=O)OCC(=O)N2CCN(c3ccccc3)CC2)c1 | – | inactive: -20.4% |
| Cc1ccc(S(=O)(=O)N2[C@@H](c3ccc(Br)cc3)C(C(=O)O)=CC[C@H]2c2ccc(Cl)cc2)cc1 | inconclusive: 25.9 µM [inhibitor, single point] | – |
| COc1ccc(NC(=O)c2cccnc2NCCc2ccccc2)cc1 | inconclusive: 29.1 µM [inhibitor, single point] | – |
| Cc1ccc(S(=O)(=O)N2CCN(C(=O)N3CCCCC3)CC2)c(C)c1 | inconclusive: 23.1 µM [inhibitor, single point] | – |
| CN(c1ccccc1C(=O)O)S(=O)(=O)c1ccc2[nH]c(=O)oc2c1 | – | inactive: -5.28% |
| O=C(Nc1ccccc1)c1ccc(CSc2ncccn2)cc1 | inconclusive: 18.4 µM [inhibitor, partial curve, poor fit] | – |
| Cc1ccc(-n2c(COCC(=O)O)nc3cccnc32)cc1 | – | inactive: 3.36% |
| COc1cccc(Cn2c(=O)c(-c3ccc(F)c(F)c3)nc3cncnc32)c1 | inconclusive: 18.4 µM [inhibitor, single point] | – |
| CCCCCCCCCCCCCCCC[n+]1ccc(C)cc1 | active: 0.501 µM | – |
| CC1=C(C(=O)N(C(C)C)C(C)C)CC(CC(=O)NCCCCc2ccccc2)C(=O)N1Cc1ccc(F)cc1 (stereo unspecified) | inconclusive: 18.4 µM [inhibitor, single point] | – |

| Compound | Potency | activity change, negative = growth inhibition |
| --- | --- | --- |
| C/C(=C\C(=O)c1ccc(Br)cc1)NNC(=O)c1ccccc1 | active: 18.4 µM | – |
| C[C@H](CO)N1C[C@H](C)[C@@H](CN(C)S(=O)(=O)c2ccccc2)Oc2c(NC(=O)NC3CCCCC3)cccc2C1=O | inconclusive: 29.1 µM [inhibitor, single point] | – |
| COc1ccc(C(c2c(NC(=O)c3ccco3)sc(C)c2C)N2CCOCC2)cc1OC (stereo unspecified) | inconclusive: 18.4 µM [inhibitor, single point] | – |
| CCCCNC(C(=O)Nc1cccc(S(=O)(=O)N2CCOCC2)c1)c1ccccc1 (stereo unspecified) | inconclusive: 29.1 µM [inhibitor, single point] | – |
| CCc1cc([N+](=O)[O-])cc(CC)c1N | – | inactive: -15.2% |
| CCn1c(SCC(=O)Nc2cc(C)on2)nnc1-c1ccc(OC)cc1 | – | inactive: -15.4% |
| COc1ccccc1Nc1nc(N)nc(CN2CCc3ccccc3C2)n1 | inconclusive: 29.1 µM [inhibitor, single point] | – |
| COc1cc2c(C(=O)N3CCN(C)CC3)c(CSc3ccccc3)n(C)c2cc1Br | inconclusive: 29.1 µM [inhibitor, single point] | – |
| CCCCN(C)CCn1c(=S)[nH]c2ccc(N3CCOCC3)cc2c1=O | inconclusive: 16.4 µM [inhibitor, single point] | – |
| N#CC(C#N)=C1NC2(CCCC2)Cc2ccccc21 | inconclusive: 23.1 µM [inhibitor, single point] | – |
| CC1CCN(C(=O)c2ccc(NC3=C(Cl)C(=O)N(Cc4ccccc4)C3=O)cc2)CC1 | active: 11.6 µM | – |
| Cc1ccc(C(NC(=O)c2ccccc2)C(Cl)(Cl)Cl)cc1 (stereo unspecified) | active: 20.6 µM | – |
| COc1ccc(NC(=O)Cc2coc3ccc4ccccc4c23)cc1S(=O)(=O)N1CCOCC1 | inconclusive: 29.1 µM [inhibitor, single point] | – |
| COC(=O)c1ccc(N2C(c3cc(OC)cc(OC)c3)=Cc3ccc(OC)cc3C2CC(=O)c2ccco2)cc1 (stereo unspecified) | inconclusive: 13 µM [inhibitor, partial curve] | – |
| O=c1[nH]cnc2c1c(-c1ccccc1)cn2-c1ccc(F)cc1 | inconclusive: 14.6 µM [inhibitor, partial curve] | – |
| CCOc1ccc(N(CC(=O)NCc2ccc(F)cc2)C(=O)c2ccco2)cc1 | inconclusive: 0.461 µM [inhibitor, single point] | – |
| Cc1cccc(NS(=O)(=O)c2ccc(C)c(C(=O)NC3CCN(Cc4ccccc4)CC3)c2)c1 | inconclusive: 4.11 µM [inhibitor, full curve] | – |
| CC1(c2ccc3ccccc3c2)CCC(=O)O1 (stereo unspecified) | – | inactive: -0.229% |
| CN(C(=O)COC(=O)Cc1ccc(Br)cc1)c1c(N)n(Cc2ccccc2)c(=O)[nH]c1=O | inconclusive: 18.4 µM [inhibitor, single point] | – |
| C#CCN1C=C(C(=O)OCC)C(C)N(Cc2ccccc2I)S1(=O)=O (stereo unspecified) | active: 8.2 µM | – |
| Cc1ccc(-n2nc3c(=O)n(CC(=O)NCc4ccccn4)nc(C)c3c2C)cc1 | – | inactive: -25.2% |
| Cn1c(=O)c2nc(Cl)c(-c3ccccc3)nc2n(C)c1=O | inconclusive: 29.1 µM [inhibitor, single point] | – |
| COC(=O)c1sc2nc(C)nc(SCC(=O)C(C)(C)C)c2c1C | inconclusive: 32.6 µM [inhibitor, partial curve, poor fit] | – |
